From the supplement of paper PMC11417369
± gives the standard deviation of the averaged measurements. The list shows a part of the results.

Test system: PfAP2-LT AP2 domain (GST-tagged)
Test: gcPBM binding intensity (ln(normalized median fluorescence intensity)); higher = stronger DNA binding
Summary of the method: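 Probes on an Agilent 4 × 180k array were primer-extended, double-stranded and 36 bp long, taken from intergenic genomic regions, with negative controls added. GST-tagged P. falciparum DNA-binding domains from E. coli, about 25 μg on average, were applied to the array for 1 h in 1× PBS containing 1% milk, 0.2 mg/ml BSA, 0.5% salmon testes DNA and 0.03% Triton X-100. Binding intensity, obtained after Alexa488 anti-GST antibody detection and a 488 nm scan, is the highest Masliner-normalised natural-log median intensity across replicate spots of either probe orientation.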

Sequence	gcPBM binding intensity (ln)
TATTTTTTAACACAACGTACATATAAAAAATATTTA [XGTACX_site6025]	8.31 ± 0.38
TTAGATATAATATATACACACCAACGAACGAAGAAA [CACACA_site4763]	9.12 ± 0.4
TTCTTTTCTCTTTTAATCATATTATATAAATGAATA [CACACA_negctrl_site820]	8.31 ± 0.52
AAAAAAATTTATTAAAGTACTAGATAATCATATAAA [XGTACX_site1455]	8.37 ± 0.53
ATATATAAAAAAGCTAGTACACAAAAATATATAATG [XGTACX_site3001]	8.95 ± 0.54
AAAAATTTTATATTCACACACATATTTATATTTATA [CACACA_site6439]	8.95 ± 0.35
ATTATAAATAAATATTGTACTTATATGATCTATTTG [XGTACX_site3820]	8.53 ± 0.57
AGAATAATATAATAAAGTACAAACCTATCTAACTAC [XGTACX_site5477]	9.05 ± 0.45
CCTTTCACATATAATACATGCATTATTATATATGAA [TGCATGCA_site287]	8.7 ± 0.23
ATTGCATTTGTAGATAATACAATATGGATTGTTATA [CACACA_negctrl_site1749]	8.59 ± 0.3
GGATATATTATATGTACACACACATATAAGGGATTA [CACACA_site7884]	9.34 ± 0.31
AATATATAAATTAATACATGCACATATAGAAAGGGA [TGCATGCA_site472]	9.23 ± 0.49
CTTTTTACTTAATACACACACACACTAGAAAAAAAA [CACACA_site4680]	9.59 ± 0.16
TATCAAAATTAGTATACACACAAAATTATTCAAATA [CACACA_site2232]	8.78 ± 0.52
TAAAAGGAAAAAAAAGCACACACAATATTACTTGAA [CACACA_site8831]	9.25 ± 0.41
TATACATATAAATTGTGTACACATATATATATATTT [XGTACX_site7875]	8.96 ± 0.39
AAAAAAAAAAAAAGGTGTACATAAGTAAATTCATAT [XGTACX_site4206]	8.87 ± 0.56
AACCAATATGTGTATACACACATAAATATAAATATA [CACACA_site7729]	9.43 ± 0.45
CTTTTCTTTTTTTTTTGTACATAAAATTATTCCTTA [XGTACX_site3924]	8.64 ± 0.59
TTTTGTTGCTCTTTTTTTTTTTTTTTTAACTGTATG [CACACA_negctrl_site1072]	8.74 ± 0.59
AATATAGTCACACATACACACATATAGATTTATATA [CACACA_site7223]	9.27 ± 0.4
TTATTTTGTTTTAAAAGTACACACTTTTAATTAGAT [XGTACX_site2271]	8.66 ± 0.41

Sequence	gcPBM binding intensity (ln)
ATAATAAGCAAACACACACACACAAAAAAAAAAAAA [CACACA_site720]	9.92 ± 0.58
TATATAAACACGTACACACACATATAGGTATTTATA [CACACA_site7615]	9.47 ± 0.36
ACAGAATACATATACACACATACAAAAAAGTGCATA [CACACA_site987]	9.29 ± 0.32
CATTATGTTGTAAATGCACACATACATATACACAGT [CACACA_site8990]	9.23 ± 0.33
TCATACTGTATATTTTGTACTTATATATATATTATA [XGTACX_site6136]	8.98 ± 0.44
TTTGCTTCCAAAAGTCGTACAAAAAATATTAAATAT [XGTACX_site4171]	8.32 ± 0.37
TACAAAAGCGATACGGCACACATTTCCTGTTTAAAT [CACACA_site2746]	9.09 ± 0.37
AAAAGATTGCTCCGCATGCACCTCCAAAAGTTCCTT [GTGCAC_site9993]	8.7 ± 0.33
TATTTATATTTATATACACACATACATATTTATATT [CACACA_site6535]	9.1 ± 0.4
ATTGTGTTAATGAAATGTACATTTTCTCTACGTTAA [XGTACX_site1322]	8.81 ± 0.44
AATATTATGTATAACCGTACATTATATATATAATAA [XGTACX_site1594]	8.68 ± 0.42
GTGTAAAGGTATTATTGTATTATTCAAAATAAAAAA [CACACA_negctrl_site637]	8.57 ± 0.5
ATTAAAATAATTTAATTTCTTAGACACAATTTGTAA [GTGCAC_negctrl_site331]	8.19 ± 0.45
TTAAACTTGTTTTGGATGCACTATATAATTCATTTT [GTGCAC_site9549]	8.62 ± 0.54
TCCTACATATTATAGTGTACATTTTCATGTTCATAT [XGTACX_site4308]	9.03 ± 0.4
AAGTATTATATATTTTGTACATATATAAAACCACAA [XGTACX_site5508]	8.63 ± 0.39
TATTTTGTAATAATTACACACGGAATTATAACAGAA [CACACA_site2355]	8.85 ± 0.34
TCTTAATTTGTTATATGTACATAATATAATTGTATA [XGTACX_site5184]	8.77 ± 0.35
TTATATTAATAAAAAGAAAATCATTTTTTCTTTTAT [CACACA_negctrl_site1595]	8.05 ± 0.47
ATATATATATTTATATTTATATGTAAATATCAACGT [TGCATGCA_negctrl_site32]	8.77 ± 0.4
TATATTAATAATAAGTGTACATATATATATATTTTT [XGTACX_site288]	8.71 ± 0.36
AATATATAGAGAGATATGCACACTGTATGAATGCAC [CACACA_site2677]	9.04 ± 0.42

Sequence	gcPBM binding intensity (ln)
TATTTTTTCTTTCATTGTACTTTTTTTTTGTTTTGT [XGTACX_site4081]	8.9 ± 0.66
ATTTGTAAAAAATTCATACACACGTCTTATTTTTAA [CACACA_site1390]	9.15 ± 0.35
AATGAGAAATATAATTGTACATATATTTATTTTCAT [XGTACX_site3669]	8.62 ± 0.38
TATCCATTTCTTTATGTGCACATTAAATATATTTGT	9.06 ± 0.52
AATACTATTATTATTGCACACTTATTATCCCTCGGA [CACACA_site4262]	9.05 ± 0.43
TATAAAAATATTTCTACACACATTAATATATATATA [CACACA_site1150]	8.8 ± 0.46
CAAAAGGATAGGCACACACACACACCCATATATATA [CACACA_site2199]	10.2 ± 0.23
AATATGTCTATATTTTTTATATGGAAATATTATAAA [GTGCAC_negctrl_site700]	8.1 ± 0.31
TTTTTTTTTTTTTTTTTTTTTTTATCTATTATTTAT [XGTACX_negctrl_site496]	8.26 ± 0.24
AAACAAAAAATTTAAAGTACAAAAATTATGATTGTT [XGTACX_site465]	8.7 ± 0.42
AAAAAATTAATATTGACACACATTTTTAAGAATAAT [CACACA_site239]	8.68 ± 0.4
AATGAATATATTTATTGTACATATATGAATATTGCA [XGTACX_site8689]	8.63 ± 0.43
ATTTTTTTATTTTTGTGTACTTATAAGAATATTAAT [XGTACX_site4850]	8.72 ± 0.43
AAAAAAAAAAAAAAAAGTACAAAAAGGAGAAAGATA [XGTACX_site7862]	8.71 ± 0.52
TATATATATATATATAGTACGCACACATAGTTGCAA [XGTACX_site5875]	9.6 ± 0.014
TATTTTTTATGATTAACACACACACTAATAAAAAAA [CACACA_site9370]	9.12 ± 0.32
ATTCTTACTAATATCGCACACACATATGTAGACGGG [CACACA_site88]	9.56 ± 0.3
AACAAGTTGCATGGTGCACACATGTATATATATCTA [CACACA_site2548]	9.16 ± 0.47
AAAATGTATGTAGTCTGTACAAATACTCTATAAATA [XGTACX_site6475]	8.74 ± 0.52
TACAATTTTACTCATAAACACACATATATATGTTAT [CACACA_site9031]	8.97 ± 0.38
AGGTTTATAAAAAAAAAAAAAAAAAAAAAAAAAAAA [GTGCAC_negctrl_site113]	7.96 ± 0.32
ACCCAGTGTATTCATAGTACACGCTCATATATTATC [XGTACX_site423]	9.01 ± 0.39

Sequence	gcPBM binding intensity (ln)
CACAAAGGTCTGAAATTTTAGGGGTGCCTGGGACTA [CACACA_negctrl_site681]	8.51 ± 0.35
AATATTTAAAACATATGTACTGAAAAACAATTGGAC [XGTACX_site6360]	8.94 ± 0.46
ACAAGATAATAGAGAAGTACTAATAAACATACACAA [XGTACX_site6617]	8.97 ± 0.53
AATATAAAATCAAGAAATTAAAAAAAAACAGAAAAC [CACACA_negctrl_site1004]	8.89 ± 0.52
TCATAAAAGATTAAGTGTACATGTGCTACTCTTATA [XGTACX_site6255]	8.7 ± 0.47
TATATATATATATGTGCACACCAATTGTATGTAATA [CACACA_site3888]	9.8 ± 0.23
ATTTTAAATTTATCTGTGCACAGTATTATATAAGCA [GTGCAC_site9806]	8.77 ± 0.46
TATGTTCCTTTTTGTTGTACTGAAAAATTATGTTCA [XGTACX_site3981]	8.73 ± 0.42
ATAATATAAATTAATTTACACACTAATAAATATATA [CACACA_site9259]	8.71 ± 0.4
GAGAGAGAAATATGCACACATAAGGGAAATAAATAA [CACACA_site1153]	9.28 ± 0.47
TTTTGATGCTTTAAATGTACAAGGGTTCTTATGAAA [XGTACX_site831]	8.25 ± 0.38
GAAAAAAAAAGTTAAGCACACACATGAATAAATAAT [CACACA_site8179]	9.33 ± 0.42
AAAAAAAAAAAATAGAAAAAAAAATAAAATAAAAAA [CACACA_negctrl_site562]	8.46 ± 0.71
TGTATATAATTTATATGTACATATATTTTATTTTGT [XGTACX_site1905]	8.76 ± 0.57
TGTTAACCACAAAAATAAAATAAAATAAAAATAATA [XGTACX_negctrl_site535]	8.54 ± 0.52
ATTATGCACGGACACACACACACACCCCTAAAAAAT [CACACA_site5426]	10.1 ± 0.32
TGATAAATATTATGTTGTACTTTCTGCCCTTCACAT [XGTACX_site5168]	8.96 ± 0.6
TATGCTATTATATATGTACACACCAATTTATTTATA [CACACA_site3918]	8.98 ± 0.38
TTTCCCATAGGAAAAACACACATATATTATAGATAA [CACACA_site7019]	8.6 ± 0.49
AAAACATATTTTAAAAGTACTTGAAAAAAAATTTTC [XGTACX_site3940]	8.43 ± 0.45
AAACCAAAAATAACACGTACAAAAATAAAAAGTATA [XGTACX_site4261]	9.18 ± 0.52
GAGAGAGAAATAAAAAGTACATACATATATATACAT [XGTACX_site2267]	8.84 ± 0.58
